Measured values: PMC11988184
Results are given in words; binding and its absence hold for the method and conditions named. In cells and extracts the contact can be indirect. Some binding calls cover weakened binding; strength is not graded here.

Chains of the proteins cited; added tags and fusions are not shown. Lines headed by an entry give the natural chain unless they say otherwise; changes in a name come on top. Residues count along the entry.
UniProt Q8IXI2: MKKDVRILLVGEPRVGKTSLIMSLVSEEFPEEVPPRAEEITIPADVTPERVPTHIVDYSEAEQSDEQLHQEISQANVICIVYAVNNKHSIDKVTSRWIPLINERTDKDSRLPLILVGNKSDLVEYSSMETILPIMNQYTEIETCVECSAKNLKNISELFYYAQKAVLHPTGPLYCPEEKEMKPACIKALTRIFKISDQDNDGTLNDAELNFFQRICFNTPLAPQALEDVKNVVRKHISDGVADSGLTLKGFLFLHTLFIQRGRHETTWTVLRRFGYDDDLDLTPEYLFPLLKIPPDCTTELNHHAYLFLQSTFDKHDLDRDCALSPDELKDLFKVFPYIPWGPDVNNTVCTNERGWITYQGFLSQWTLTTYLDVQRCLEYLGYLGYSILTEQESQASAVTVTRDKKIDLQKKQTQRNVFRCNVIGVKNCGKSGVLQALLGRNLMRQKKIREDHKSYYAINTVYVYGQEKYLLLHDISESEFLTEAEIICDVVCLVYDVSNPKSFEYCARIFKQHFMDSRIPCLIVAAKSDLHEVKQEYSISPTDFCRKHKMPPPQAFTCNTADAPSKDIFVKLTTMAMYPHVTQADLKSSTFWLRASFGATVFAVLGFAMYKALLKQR
UniProt Q8BG51: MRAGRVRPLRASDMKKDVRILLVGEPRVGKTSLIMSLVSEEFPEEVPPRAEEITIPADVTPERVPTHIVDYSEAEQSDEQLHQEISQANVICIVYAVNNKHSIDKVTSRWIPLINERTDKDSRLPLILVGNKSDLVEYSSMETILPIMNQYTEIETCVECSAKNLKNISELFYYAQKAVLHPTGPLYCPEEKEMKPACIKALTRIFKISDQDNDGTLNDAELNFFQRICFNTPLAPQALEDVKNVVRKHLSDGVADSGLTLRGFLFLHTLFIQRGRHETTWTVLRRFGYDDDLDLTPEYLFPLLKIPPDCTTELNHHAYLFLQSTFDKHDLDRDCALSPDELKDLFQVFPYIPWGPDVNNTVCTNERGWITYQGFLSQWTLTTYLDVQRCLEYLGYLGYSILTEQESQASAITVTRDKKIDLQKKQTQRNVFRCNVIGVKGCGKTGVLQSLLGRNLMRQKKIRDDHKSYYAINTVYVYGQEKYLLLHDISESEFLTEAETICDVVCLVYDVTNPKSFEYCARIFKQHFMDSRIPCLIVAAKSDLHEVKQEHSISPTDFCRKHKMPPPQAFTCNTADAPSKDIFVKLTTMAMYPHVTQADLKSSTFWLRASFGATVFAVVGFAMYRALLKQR
UniProt P38646, residues 47-679: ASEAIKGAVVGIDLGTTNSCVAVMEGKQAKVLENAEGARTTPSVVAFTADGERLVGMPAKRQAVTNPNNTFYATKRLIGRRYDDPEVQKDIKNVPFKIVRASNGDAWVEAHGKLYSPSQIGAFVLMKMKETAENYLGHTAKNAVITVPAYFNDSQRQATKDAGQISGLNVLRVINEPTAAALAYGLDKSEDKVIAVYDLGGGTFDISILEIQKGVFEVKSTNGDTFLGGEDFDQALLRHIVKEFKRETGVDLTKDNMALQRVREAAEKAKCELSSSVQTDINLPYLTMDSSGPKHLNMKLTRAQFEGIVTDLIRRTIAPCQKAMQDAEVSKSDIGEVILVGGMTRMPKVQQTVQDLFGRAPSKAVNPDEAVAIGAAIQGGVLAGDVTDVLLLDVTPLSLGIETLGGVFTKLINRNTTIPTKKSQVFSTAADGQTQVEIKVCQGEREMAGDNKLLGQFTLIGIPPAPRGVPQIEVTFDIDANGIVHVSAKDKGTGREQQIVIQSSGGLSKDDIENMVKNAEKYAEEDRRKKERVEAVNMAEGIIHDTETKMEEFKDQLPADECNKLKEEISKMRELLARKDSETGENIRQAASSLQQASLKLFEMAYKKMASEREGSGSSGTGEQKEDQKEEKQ
UniProt P38647, residues 47-679: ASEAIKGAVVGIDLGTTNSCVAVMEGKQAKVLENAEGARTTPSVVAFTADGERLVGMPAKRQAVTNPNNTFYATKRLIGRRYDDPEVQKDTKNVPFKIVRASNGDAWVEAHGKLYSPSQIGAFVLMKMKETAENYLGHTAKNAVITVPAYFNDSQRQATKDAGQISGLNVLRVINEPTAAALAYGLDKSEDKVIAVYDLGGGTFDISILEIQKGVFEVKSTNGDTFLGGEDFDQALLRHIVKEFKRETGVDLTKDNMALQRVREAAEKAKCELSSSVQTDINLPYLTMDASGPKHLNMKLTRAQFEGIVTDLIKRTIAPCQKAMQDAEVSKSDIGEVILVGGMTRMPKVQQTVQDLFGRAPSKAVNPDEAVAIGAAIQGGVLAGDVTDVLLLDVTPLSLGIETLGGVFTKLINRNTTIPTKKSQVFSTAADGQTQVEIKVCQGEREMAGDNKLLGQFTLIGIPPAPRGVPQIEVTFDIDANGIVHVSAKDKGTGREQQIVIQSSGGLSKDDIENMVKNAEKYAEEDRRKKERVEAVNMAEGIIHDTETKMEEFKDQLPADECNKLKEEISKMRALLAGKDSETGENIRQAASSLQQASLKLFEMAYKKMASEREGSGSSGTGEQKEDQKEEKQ
UniProt O95292: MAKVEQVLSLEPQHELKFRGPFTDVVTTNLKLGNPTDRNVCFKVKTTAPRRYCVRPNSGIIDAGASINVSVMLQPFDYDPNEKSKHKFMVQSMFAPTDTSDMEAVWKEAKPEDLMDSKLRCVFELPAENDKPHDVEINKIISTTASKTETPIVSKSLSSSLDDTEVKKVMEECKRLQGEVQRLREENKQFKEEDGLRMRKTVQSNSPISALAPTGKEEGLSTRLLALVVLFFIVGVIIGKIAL
UniProt Q9QY76: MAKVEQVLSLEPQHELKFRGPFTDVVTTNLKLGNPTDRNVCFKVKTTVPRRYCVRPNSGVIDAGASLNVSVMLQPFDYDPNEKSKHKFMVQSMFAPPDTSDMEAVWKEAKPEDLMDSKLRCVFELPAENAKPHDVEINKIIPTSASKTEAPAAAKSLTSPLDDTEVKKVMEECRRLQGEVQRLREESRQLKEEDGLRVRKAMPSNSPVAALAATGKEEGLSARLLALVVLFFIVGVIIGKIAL
UniProt Q8NE86, residues 51-351: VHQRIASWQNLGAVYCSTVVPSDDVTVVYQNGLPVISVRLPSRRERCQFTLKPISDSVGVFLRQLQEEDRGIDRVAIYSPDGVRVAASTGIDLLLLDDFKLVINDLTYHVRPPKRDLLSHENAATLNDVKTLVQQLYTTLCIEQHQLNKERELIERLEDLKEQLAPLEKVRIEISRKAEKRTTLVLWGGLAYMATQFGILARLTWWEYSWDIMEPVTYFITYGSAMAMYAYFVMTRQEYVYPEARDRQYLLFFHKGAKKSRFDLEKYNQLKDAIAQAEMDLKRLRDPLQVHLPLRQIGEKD
UniProt P21796: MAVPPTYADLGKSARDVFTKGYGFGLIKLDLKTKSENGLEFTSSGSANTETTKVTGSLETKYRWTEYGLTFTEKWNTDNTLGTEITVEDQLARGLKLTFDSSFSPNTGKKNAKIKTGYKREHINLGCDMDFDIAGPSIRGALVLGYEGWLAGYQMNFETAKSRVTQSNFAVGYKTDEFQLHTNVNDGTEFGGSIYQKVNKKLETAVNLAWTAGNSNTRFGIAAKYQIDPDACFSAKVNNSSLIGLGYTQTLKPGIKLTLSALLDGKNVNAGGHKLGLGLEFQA

Key:
[1] = target: c-Myc tagged MIRO1 (mitochondrial rho GTPase 1), wild type (UniProt Q8IXI2); assay: co-IP; c-Myc mouse antibody on Dynabeads Protein G precipitates c-Myc tagged MIRO1 constructs from whole-cell lysates of HEK cells (1 mg lysate, overnight, 4 °C); washing buffer 25 mM Tris HCl, 150 mM NaCl, 1% NP-40, 1 mM EDTA, 5% glycerol; eluted in LDS, immunoblot
[2] = target: c-Myc tagged MIRO1 dnC (MIRO1 S432N, dominant-negative C-terminal GTPase domain) (UniProt Q8IXI2); assay: as above
[3] = target: c-Myc tagged MIRO1 KK (MIRO1 E208K/E328K, EF-hand mutant) (UniProt Q8IXI2); assay: as above
[4] = target: MIRO1 (mitochondrial rho GTPase 1), endogenous in mouse VSMCs (mouse (endogenous in aortic VSMCs)) (UniProt Q8BG51); assay: proximity ligation; Duolink in situ Red PLA on fixed (4% PFA), permeabilised (0.1% Tween) mouse VSMCs; WT and MIRO1-/- cells, synchronised by serum starvation (0 h) and 24 h and 48 h after release with 10% FBS; primary antibodies overnight at 4 °C; PLA signals counted with ImageJ
[5] = target: T1, PTPIP51, endogenous in mouse VSMCs (mouse (endogenous in aortic VSMCs)) (UniProt Q3UJU9); assay: as above
T1 sequence: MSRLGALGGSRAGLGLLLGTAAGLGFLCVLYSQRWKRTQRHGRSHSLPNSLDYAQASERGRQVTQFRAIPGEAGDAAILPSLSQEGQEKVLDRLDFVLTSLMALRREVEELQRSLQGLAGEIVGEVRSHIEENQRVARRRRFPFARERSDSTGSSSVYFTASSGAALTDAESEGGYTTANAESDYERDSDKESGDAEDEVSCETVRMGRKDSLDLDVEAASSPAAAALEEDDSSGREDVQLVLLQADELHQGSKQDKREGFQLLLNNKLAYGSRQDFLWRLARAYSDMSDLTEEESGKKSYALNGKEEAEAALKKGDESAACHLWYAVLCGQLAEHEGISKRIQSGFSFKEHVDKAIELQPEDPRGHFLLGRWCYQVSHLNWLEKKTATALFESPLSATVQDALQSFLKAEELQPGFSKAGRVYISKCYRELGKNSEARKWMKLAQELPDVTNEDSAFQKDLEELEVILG

Row | Substance | binding [1] | binding [2] | binding [3] | other results
1 | GRP75 (glucose-related protein 75), endogenous in HEK cells (from UniProt P38646 47-679) | binds | binds | binds weakly | 
2 | GRP75, endogenous in mouse VSMCs (from UniProt P38647 47-679) |  |  |  | binding [4]: binds
3 | VAPB, endogenous in HEK cells (from UniProt O95292 1-243) | no binding |  |  | 
4 | VAPB, endogenous in mouse VSMCs (from UniProt Q9QY76 1-243) |  |  |  | binding [5]: binds

Now from value to substance, other results behind:

Row | binding [1] | binding [2] | binding [3] | Substance | other results
5 | binds | binds | binds weakly | MCU (mitochondrial Ca2+ uniporter), endogenous in HEK cells (from UniProt Q8NE86 51-351) | 
6 | no binding |  |  | VDAC1 (voltage-dependent anion channel 1), endogenous in HEK cells (from UniProt P21796 1-283) | 
